From article PMC3858240 (Journal of immunology (Baltimore, Md. : 1950), 2013)

B1: full-length Myc-tagged TRIF (natural protein)
chain: MACTGPSLPSAFDILGAAGQDKLLYLKHKLKTPRPGCQGQDLLHAMVLLKLGQETEARISLEALKADAVARLVARQWAGVDSTEDPEEPPDVSWAVARLYHLLAEEKLCPASLRDVAYQEAVRTLSSRDDHRLGELQDEARNRCGWDIAGDPGSIRTLQSNLGCLPPSSALPSGTRSLPRPIDGVSDWSQGCSLRSTGSPASLASNLEISQSPTMPFLSLHRSPHGPSKLCDDPQASLVPEPVPGGCQEPEEMSWPPSGEIASPPELPSSPPPGLPEVAPDATSTGLPDTPAAPETSTNYPVECTEGSAGPQSLPLPILEPVKNPCSVKDQTPLQLSVEDTTSPNTKPCPPTPTTPETSPPPPPPPPSSTPCSAHLTPSSLFPSSLESSSEQKFYNFVILHARADEHIALRVREKLEALGVPDGATFCEDFQVPGRGELSCLQDAIDHSAFIILLLTSNFDCRLSLHQVNQAMMSNLTRQGSPDCVIPFLPLESSPAQLSSDTASLLSGLVRLDEHSQIFARKVANTFKPHRLQARKAMWRKEQDTRALREQSQHLDGERMQAAALNAAYSAYLQSYLSYQAQMEQLQVAFGSHMSFGTGAPYGARMPFGGQVPLGAPPPFPTWPGCPQPPPLHAWQAGTPPPPSPQPAAFPQSLPFPQSPAFPTASPAPPQSPGLQPLIIHHAQMVQLGLNNHMWNQRGSQAPEDKTQEAE
B2: full-length Myc-tagged MyD88 (natural protein)
chain: MAAGGPGAGSAAPVSSTSSLPLAALNMRVRRRLSLFLNVRTQVAADWTALAEEMDFEYLEIRQLETQADPTGRLLDAWQGRPGASVGRLLELLTKLGRDDVLLELGPSIEEDCQKYILKQQQEEAEKPLQVAAVDSSVPRTAELAGITTLDDPLGHMPERFDAFICYCPSDIQFVQEMIRQLEQTNYRLKLCVSDRDVLPGTCVWSIASELIEKRCRRMVVVVSDDYLQSKECDFQTKFALSLSPGAHQKRLIPIKYKAMKKEFPSILRFITVCDYTNPCTKSWFWTRLAKALSLP

How the values were obtained:
[1] = molecular target: Flag-TLR3 (wild-type Toll-like receptor 3) (human, UniProt O15455 24-904); assay: co-IP
Flag-TLR3 A795P = Flag-TLR3 A795P (human, UniProt O15455 24-904, A795P); assay: co-IP

| Binder | fold increase in binding after poly (I:C) against unstimulated [1] [fold] | fold increase in binding after poly (I:C) against unstimulated (Flag-TLR3 A795P) [fold] |
| --- | --- | --- |
| B1 | 2.5 | 1.5 |
| B2 |  | 2 |
